± gives the standard deviation of the averaged measurements. Some of the results follow.
Test system: PfAP2-EXP AP2 domain (GST-tagged)
Assay: gcPBM binding intensity (ln(normalized median fluorescence intensity)); higher = stronger DNA binding
Outline: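 The highest Masliner-normalised natural-log median intensity across replicate spots of either probe orientation is reported as binding intensity. GST-tagged P. falciparum DNA-binding domains expressed in E. coli were applied for 1 h to an Agilent 4 × 180k array of primer-extended double-stranded 36-bp intergenic genomic probes plus negative controls, and bound protein was detected with Alexa488 anti-GST antibody and scanned at 488 nm.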

| Sequence | gcPBM binding intensity (ln) |
| --- | --- |
| GGTTCATAATATGGTTGTACATAAATATATATATAT [XGTACX_site7583] | 9.89 ± 0.33 |
| GGGAGGATAGTTCACAGTACCCAGGAAATCTACGGA [XGTACX_site2553] | 8.81 ± 0.44 |
| AATGGGTAAACATACACACACACATCTATATTTATA [CACACA_site7025] | 8.44 ± 0.67 |
| TAACAAGGTTTATATGCATGCAAACATAACCAAAAA [TGCATGCA_site824] | 9.96 ± 0.23 |
| CTTTGCCTTAAAAAGGAACACACATGCTTTTTTTAG [CACACA_site8219] | 8.28 ± 0.38 |
| TACTATATCATTTATTGTACAATATTTCTTCAGAAA [XGTACX_site1008] | 8.73 ± 0.4 |
| TATAAAAGACTAAATATTATAGAAATATAAATATAA [TGCATGCA_negctrl_site237] | 8.13 ± 0.23 |
| TGCTTCATAAATAAAACATGCAATATAGAAATTAAA [TGCATGCA_site690] | 8.62 ± 0.4 |
| TTATTTTCTTTCTATGCACACGCACGTATTTGCCCA [CACACA_site9104] | 8.93 ± 0.22 |
| TATAGTAAAATTAGGGTGCTTTTGTAACAAAAAAAA | 8.77 ± 0.2 |
| AGAGTAGGAAATGGAAAAATAAAATAAATAAATAAA [XGTACX_negctrl_site69] | 8.7 ± 0.42 |
| AAATATATATACCACACACACATACCTCTATTTGTA [CACACA_site1854] | 8.74 ± 0.51 |
| TTTTGTAAAAGGTATATATATATATATATATATATA [GTGCAC_negctrl_site734] | 10.1 ± 0.49 |
| CGTATTTTAATATTTACACACTTATTTTTTATATAA [CACACA_site125] | 8.55 ± 0.29 |
| AATAAAAAAATAAAAAAAAAAAAAAATAAAAAAAAA [GTGCAC_negctrl_site12] | 8.26 ± 0.35 |
| TATAGCATATTTCACACACACATAATGAATATTATA [CACACA_site3545] | 8.37 ± 0.46 |
| TTTATATAGAAAAATTGTACGAATTACTTTTTTATA [XGTACX_site6843] | 8.07 ± 0.13 |
| AAAATGTACTTTTTCTAAAGAGTAATGATGCTTGAT [CACACA_negctrl_site1124] | 8.52 ± 0.45 |
| TTTAACGTTGAATATACACACATATATTTATTTATA [CACACA_site7695] | 8.32 ± 0.3 |
| AATCCTTTAAAACACACACACAAAAAAAAAAAAAAA [CACACA_site642] | 8.13 ± 0.49 |
| TTTTTAATACAAAAAAAATAATATGTTATATTTCAA [CACACA_negctrl_site35] | 7.92 ± 0.43 |
| ATGAAATATGCACAGTGTACTTTTATGAGGAACATA [XGTACX_site426] | 8.65 ± 0.26 |

| Sequence | gcPBM binding intensity (ln) |
| --- | --- |
| GGGAATATATAAGATACACACACAAATTAAATATAA [CACACA_site8898] | 8.68 ± 0.45 |
| AATTAACCGTGACACACACACATATAAATATAAATA [CACACA_site7790] | 8.59 ± 0.37 |
| TGCCCTTTGGTTATAACACACATGCACACGTAAATA [CACACA_site7750] | 8.96 ± 0.41 |
| TATATATATATATATACACACACACCCACCAAAGCG [CACACA_site7904] | 10.3 ± 0.26 |
| AATAAAATAATAGGCACACATATATATATATATTAT [CACACA_site273] | 8.69 ± 0.34 |
| ATATCCTACTTCTAGTGTACATATATGGACTGATGA [XGTACX_site3683] | 8.87 ± 0.35 |
| ATATATCTACATATATGTACATATATGTATATGTAT [XGTACX_site5432] | 8.41 ± 0.2 |
| TACAATTTATGACACACACACAATAATACCTATATA [CACACA_site6704] | 8.6 ± 0.52 |
| AAAAAAAAAAAACACACACACACACTAGTACATACA [CACACA_site4551] | 8.78 ± 0.5 |
| TATATATATATATGTGCACACATAAAGATATTATTT [CACACA_site3734] | 10.2 ± 0.45 |
| AAAATAAAAAGAAAAAATAAAAAGAAAAAATAAAAA [CACACA_negctrl_site120] | 8.33 ± 0.44 |
| TTATATAATCCTTTCAAACACACAAAATATAATTAA [CACACA_site1830] | 8.43 ± 0.39 |
| AGTGAAAAAAAATTTACACACATAAAATATAAACGA [CACACA_site3724] | 8.7 ± 0.4 |
| TAATACTTTTAATCTACACACGCTGAGACATGCTTT [CACACA_site1484] | 8.37 ± 0.41 |
| TTTTTTATTCTTTTTGCACACAGGAAATTTACAGAT [CACACA_site1090] | 8.89 ± 0.26 |
| TTTTTAGTTCATTAAACACACAAAAAAAAAAATAAA [CACACA_site6035] | 8.29 ± 0.48 |
| AAATAAAATACATATAAACACACATATAAACCAACA [CACACA_site8789] | 8.88 ± 0.61 |
| AAAAAAAATATAAGTGGTACTCACATAAAGACATAT [XGTACX_site3709] | 8.84 ± 0.42 |
| ATAAATAATTGTAGTTGTACATGATATTTTTATTAC [XGTACX_site550] | 8.36 ± 0.33 |
| AAAAAAAAAAAAAACACACACACAAATACAAATACA [CACACA_site414] | 8.6 ± 0.57 |
| TACAAAAAAAGATGATGTACAATGAAAAATAAGAAA [XGTACX_site5840] | 9.18 ± 0.37 |
| AAATGGACCTAATTATCACACATTATACTCGTTTTC [CACACA_site5996] | 8.56 ± 0.43 |

Source: the supplement of paper PMC11417369
